Data from PubChem BioAssay AID248 (DTP/NCI, 2004).
Toxic doses and inconclusive results are not listed. For part of its entries the source gives two or more results. The other results are left out here. An entry can have further records. The records of an entry repeat one measurement across runs, samples, wells, individuals or studies. Brackets tell where a record comes from. A, B and so on number the origins entry by entry.

Test system: L1210 leukemia ip in BDF1 mice, survival T/C
Assay: NCI In Vivo Anticancer Drug Screen. Data for tumor model L1210 Leukemia (intraperitoneal) in B6D2F1 (BDF1) mice
Conditions: endpoint: mean survival time, higher = longer survival

CC1(N)COP(=O)(Nc2ccccc2)OC1 (stereo unspecified)
T/C (dose: 100.0 mg/kg/injection, schedule: Q01DX001 (ip), vehicle: carboxymethylcellulose (CMC)): 104 % of control and 152 % of control

CO[C@H]1Nc2c(ccc(C)c2O)C(=O)N2C=C(/C=C/C(N)=O)C[C@@H]12
T/C (dose: 1.0 mg/kg/injection, schedule: Q01DX001 (ip), vehicle: saline): 114 % of control, 119 % of control, 156 % of control

O=C(CCc1ccc(C(=O)Nc2ccc(C3=NCCN3)cc2)cc1)Nc1ccc(C2=NCCN2)cc1
T/C (dose: 120.0 mg/kg/injection, schedule: Q01DX Z (ip), vehicle: carboxymethylcellulose (CMC)): 109 % of control and 189 % of control

CCN(O)C(N)=O
T/C (dose: 268.0 mg/kg/injection, schedule: Q01DX009 (ip), vehicle: saline): 112 % of control and 155 % of control | T/C (dose: 400.0 mg/kg/injection, schedule: Q01DX009 (ip), vehicle: saline): 120 % of control and 168 % of control

Cc1cc(C)c(NC(=O)/C=C/C(=O)O)c(C)c1
T/C (dose: 400.0 mg/kg/injection, schedule: Q04DX002 (ip), vehicle: saline with Tween-80): 103 % of control and 150 % of control

CCN(CCO)CC(C)Nc1ccc([N+](=O)[O-])c2sc3ccccc3c(=O)c12 (stereo unspecified)
T/C (dose: 27.0 mg/kg/injection, schedule: Q01DX Z (ip), vehicle: saline): 93 % of control and 152 % of control | T/C (dose: 40.5 mg/kg/injection, schedule: Q01DX Z (ip), vehicle: saline): 93 % of control and 172 % of control

O=c1nc(NC(=S)Nc2ccn(C3OC(CO)C(O)C3O)c(=O)n2)ccn1C1OC(CO)C(O)C1O (stereo unspecified)
T/C (dose: 200.0 mg/kg/injection, schedule: Q01DX001 (ip), vehicle: water): 120 % of control [sample A] and 164 % of control [sample B]

Nc1nc(N)c2cc(CNc3ccc(C(=O)NC(CCCC(=O)O)C(=O)O)cc3)ccc2n1 (stereo unspecified)
T/C (dose: 1.0 mg/kg/injection, schedule: Q01DX009 (ip), vehicle: saline): 114 % of control and 150 % of control

CC(=O)c1cc(CN(CCCl)CCCl)c(O)c(CN(CCCl)CCCl)c1O
T/C (dose: 15.0 mg/kg/injection, schedule: Q01DX009 (ip), vehicle: carboxymethylcellulose (CMC)): 123 % of control and 170 % of control
